Results reported in PubChem BioAssay (NCI).
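Where inhibition never reached the appropriate level, the endpoint shown equals the highest concentration tested. Otherwise, values were interpolated linearly from a five-concentration, 48-hour dose response in 96-well plates. GI50 = concentration required for 50% inhibition of growth.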 Some entries of the source have several records that differ or are many. The list is limited to them. There may be further records. For some assays here: Records of one sample usually come from different ranges of test concentrations, not given here; a value can be the end of its range.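 Definition used: TGI = concentration required for complete inhibition of growth.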 For some assays here: The values listed for one entry repeat one measurement across runs, samples, wells, individuals or studies. Marks in square brackets tell the records apart. A, B and so on number the origins entry by entry.

Key:
Assay in all cases: NCI anticancer screen, dose series, 48 h
HCC-2998 colon = tested on: HCC-2998 colon
RPMI-8226 leukemia = tested on: RPMI-8226 leukemia
UACC-62 melanoma = tested on: UACC-62 melanoma
HOP-62 NSCLC = tested on: HOP-62 NSCLC
SK-MEL-28 melanoma = tested on: SK-MEL-28 melanoma
NCI/ADR-RES ovarian = tested on: NCI/ADR-RES ovarian
NCI-H226 lung = tested on: NCI-H226 lung
A498 renal = tested on: A498 renal
NCI-H522 lung = tested on: NCI-H522 lung
OVCAR-5 ovarian = tested on: OVCAR-5 ovarian
OVCAR-4 ovarian = tested on: OVCAR-4 ovarian
HCT-15 colon = tested on: HCT-15 colon
SK-OV-3 ovarian = tested on: SK-OV-3 ovarian
T-47D breast = tested on: T-47D breast
SN12C renal = tested on: SN12C renal
A549 NSCLC = tested on: A549 NSCLC
CAKI-1 renal = tested on: CAKI-1 renal
SR leukemia = tested on: SR leukemia
ACHN renal = tested on: ACHN renal
SNB-19 CNS = tested on: SNB-19 CNS
DU-145 prostate = tested on: DU-145 prostate
M14 melanoma = tested on: M14 melanoma
SF-539 CNS = tested on: SF-539 CNS
RXF 393 renal = tested on: RXF 393 renal
SF-268 CNS = tested on: SF-268 CNS
SF-295 CNS = tested on: SF-295 CNS
COLO 205 colon = tested on: COLO 205 colon
IGROV1 ovarian = tested on: IGROV1 ovarian
MOLT-4 leukemia = tested on: MOLT-4 leukemia
HS 578T breast = tested on: HS 578T breast
786-0 renal = tested on: 786-0 renal
MCF7 breast = tested on: MCF7 breast
U251 CNS = tested on: U251 CNS
CCRF-CEM leukemia = tested on: CCRF-CEM leukemia
HCT-116 colon = tested on: HCT-116 colon
OVCAR-3 ovarian = tested on: OVCAR-3 ovarian
OVCAR-8 ovarian = tested on: OVCAR-8 ovarian
TK-10 renal = tested on: TK-10 renal
PC-3 prostate = tested on: PC-3 prostate
UO-31 renal = tested on: UO-31 renal
HL-60(TB) leukemia = tested on: HL-60(TB) leukemia
SW-620 colon = tested on: SW-620 colon
BT-549 breast = tested on: BT-549 breast
NCI-H23 lung = tested on: NCI-H23 lung
MDA-MB-231 breast = tested on: MDA-MB-231 breast
NCI-H460 lung = tested on: NCI-H460 lung
EKVX NSCLC = tested on: EKVX NSCLC
K-562 leukemia = tested on: K-562 leukemia
SK-MEL-5 melanoma = tested on: SK-MEL-5 melanoma
SK-MEL-2 melanoma = tested on: SK-MEL-2 melanoma
LOX IMVI melanoma = tested on: LOX IMVI melanoma
MDA-MB-435 = tested on: MDA-MB-435
MALME-3M melanoma = tested on: MALME-3M melanoma
KM12 colon = tested on: KM12 colon
HOP-92 NSCLC = tested on: HOP-92 NSCLC
SNB-75 CNS = tested on: SNB-75 CNS

For `CC[C@]1(O)C[C@H]2CN(CCc3c([nH]c4ccccc34)[C@@](C(=O)OC)(c3cc4c(cc3OC)N(C)[C@H]3[C@@](O)(C(=O)OC)[C@H](OC(C)=O)[C@]5(CC)C=CCN6CC[C@]43[C@@H]65)C2)C1`, the TGI (HCC-2998 colon) was 1.16 nM and 40.9 nM, the TGI (RPMI-8226 leukemia) was 5.24 nM, 1.49 µM, 110 nM, 10.8 µM and the TGI (UACC-62 melanoma) was 0.0873 nM, 1.36 µM, 2.5 µM. The TGI (HOP-62 NSCLC) was 25 nM, 1.02 µM, 2.5 µM, 13.8 µM, the TGI (SK-MEL-28 melanoma) was 7.65 nM and 2.17 µM and the TGI (NCI/ADR-RES ovarian) was 13.5, 977, 860, 443 nM. For the same compound, the TGI (NCI-H226 lung) was 0.738 nM, 23.6 nM, 2.5 µM, the TGI (A498 renal) was 2.02 nM and 127 nM and the TGI (NCI-H522 lung) was 0.00779 nM and 0.922 nM. For the same compound, the TGI (OVCAR-5 ovarian) was 26.7 µM [mean of 2 tests] and 25 nM [mean of 3 tests] and 2.28 µM [mean of 83 tests], the TGI (OVCAR-4 ovarian) was 25 nM, 2.24 µM, 2.5 µM, 20.7 µM and the TGI (HCT-15 colon) was 17.6 nM, 1.13 µM, 147 nM, 11.2 µM. For the same compound, the TGI (SK-OV-3 ovarian) was 0.122 nM and 537 nM, the GI50 (T-47D breast) was < 0.0025 nM [1 test] and 19.1 µM [mean of 2 tests] and 2.24 µM [mean of 8 tests] and the TGI (T-47D breast) was 25 nM [1 test] and 43.8 µM [mean of 2 tests] and 2.5 µM [mean of 8 tests]. The TGI (SN12C renal) was 25 nM, 2.13 µM, 2.5 µM, 14.8 µM, the TGI (A549 NSCLC) was 15 nM, 2.15 µM, 2.5 µM, 16.8 µM and the TGI (CAKI-1 renal) was 25 nM, 1.14 µM, 2.5 µM. The TGI (SR leukemia) was 6.72 nM, 293 nM, 12.1 µM, the TGI (ACHN renal) was 15.6 nM, 2.23 µM, 23.3 µM and the TGI (SNB-19 CNS) was 25 nM, 1.03 µM, 12.6 µM. The TGI (DU-145 prostate) was 0.328 nM, 81 nM, 10.7 nM, the TGI (M14 melanoma) was 16.5 nM, 296 nM, 2.5 µM, 61.5 nM and the TGI (SF-539 CNS) was 0.0257 nM and 2.16 nM. For the same compound, the TGI (RXF 393 renal) was 22.4 µM [1 test] and 89.5 nM [mean of 33 tests], the TGI (SF-268 CNS) was 14.5 nM, 1.59 µM, 1.88 µM, 6.64 µM and the TGI (SF-295 CNS) was 0.0466 nM, 11.5 nM, 5.4 nM, 13 µM. The TGI (COLO 205 colon) was 0.0418 nM, 4.86 nM, 26.2 nM, the TGI (IGROV1 ovarian) was 15.7 nM, 1.93 µM, 2.5 µM, 12.1 µM and the TGI (MOLT-4 leukemia) was 4.49 nM, 1.39 µM, 110 nM, 29.8 µM. For the same compound, the GI50 (HS 578T breast) was 4.88 nM [1 test] and 0.25 nM [mean of 10 tests], the TGI (786-0 renal) was 15.5 nM, 2.14 µM, 2.5 µM, 12.9 µM and the TGI (MCF7 breast) was 0.901 nM, 1.64 µM, 2.03 µM, 52.9 µM. The TGI (U251 CNS) was 0.133 nM, 106 nM, 110 nM, the TGI (CCRF-CEM leukemia) was 3.77 nM, 934 nM, 110 nM, 5.25 µM and the TGI (HCT-116 colon) was 1.71 nM, 221 nM, 223 nM, 11.1 µM. The TGI (OVCAR-3 ovarian) was 0.037 nM, 3.55 nM, 110 nM, the TGI (OVCAR-8 ovarian) was 2.31 nM, 446 nM, 2.5 µM, 15.2 nM and the GI50 (TK-10 renal) was 0.25 nM [mean of 2 tests] and 69.1 nM [mean of 59 tests]. The TGI (TK-10 renal) was 19.9 nM [mean of 2 tests] and 2.49 µM [mean of 59 tests], the TGI (PC-3 prostate) was 0.822 nM, 128 nM, 2.5 µM and the TGI (UO-31 renal) was 25 nM, 2.18 µM, 2.5 µM, 18.7 µM. For the same compound, the TGI (HL-60(TB) leukemia) was 0.0198 nM and 9.69 nM, the TGI (SW-620 colon) was 25 nM, 2.37 µM, 110 nM, 17.2 µM and the TGI (BT-549 breast) was 25 nM, 2.5 µM, 22 µM. The TGI (NCI-H23 lung) was 1.88 nM, 85.7 nM, 2.5 µM, the TGI (MDA-MB-231 breast) was 2.29 nM, 108 nM, 62.8 nM and the TGI (NCI-H460 lung) was 4.81 nM, 318 nM, 725 nM. For the same compound, the TGI (EKVX NSCLC) was 2.98 nM, 1.68 µM, 2.5 µM, 46.8 µM, the TGI (K-562 leukemia) was 1.2 nM, 1.18 µM, 118 nM, 10.2 µM and the TGI (SK-MEL-5 melanoma) was 0.0452, 40.4, 110, 20.3 nM. For the same compound, the TGI (SK-MEL-2 melanoma) was 25 nM, 79.9 nM, 2.5 µM, the TGI (LOX IMVI melanoma) was 0.499 nM, 1.72 µM, 2.5 µM, 10.3 µM and the TGI (MDA-MB-435) was 0.00279 nM and 0.44 nM. The TGI (MALME-3M melanoma) was 25 nM, 1.58 µM, 2.5 µM, 13.3 µM, the TGI (KM12 colon) was 0.284 nM, 145 nM, 23.3 nM and the TGI (HOP-92 NSCLC) was 10.2 nM, 386 nM, 2.5 µM, 11.2 µM.

With `Oc1ccc(Cl)cc1Sc1cc(Cl)ccc1O` the TGI (RPMI-8226 leukemia) was 7.87 µM [sample A] and > 100 µM [sample B].

For `COc1cc(C2c3cc4c(cc3[C@@H](Nc3ccc([N+](=O)[O-])cc3)C3COC(=O)[C@H]23)OCO4)cc(OC)c1O` (stereo not given in full), the TGI (HL-60(TB) leukemia) was 233 nM and 2.61 µM and the TGI (HOP-92 NSCLC) was 872 nM and 18.2 µM.

In the case of `COc1ccc(/C=C\c2cc(OC)c(OC)c(OC)c2)cc1OC(=O)CC(N)C(=O)O` (stereo not given), the TGI (SNB-75 CNS) is reported as 5.05 nM, 769 nM, > 100 µM, the TGI (HCT-15 colon) is reported as 2.67 nM and 78.7 nM and the TGI (SK-OV-3 ovarian) is reported as 144 nM and > 100 µM. The GI50 (SR leukemia) was 0.179 nM and > 100 µM, the TGI (SR leukemia) was 0.855 nM and > 100 µM and the TGI (SNB-19 CNS) was 885 nM and > 100 µM. The TGI (M14 melanoma) was 177 nM and > 100 µM, the TGI (RXF 393 renal) was 42.3 nM and 8.58 µM and the TGI (786-0 renal) was 1.77 nM and 21.6 nM. The TGI (CCRF-CEM leukemia) was 7.38 nM and > 100 µM, the TGI (HCT-116 colon) was 1.46 nM and 62.8 nM and the TGI (OVCAR-8 ovarian) was 6.6 nM, 67.7 nM, > 100 µM. The TGI (HL-60(TB) leukemia) was 0.388 nM, 23.7 nM, > 100 µM, the TGI (NCI-H460 lung) was 6.28 nM, 24.6 nM, 16.8 µM and the TGI (LOX IMVI melanoma) was 1.43 nM and > 100 µM. The TGI (KM12 colon) was 3.86 nM and 128 nM.

`CC(C)c1[nH]nc2c(NCc3ccc(-c4ccccn4)cc3)nc(SCCN)nc12` was tested, and the TGI (HS 578T breast) was 2.62 µM and 52.2 nM, the TGI (786-0 renal) was 1.03 µM and 11.2 µM and the TGI (UO-31 renal) was 503 nM and 8.69 µM. For the same compound, the TGI (HOP-92 NSCLC) was 95 nM and 10.1 µM.
